Laboratory results as given in PubChem BioAssay AID1347165 (National Center for Advancing Translational Sciences (NCATS), 2019).
The campaign covered roughly 220,000 compounds. About 5,700 (2.6%) were called active. This list was built around the results that the source calls inconclusive (neither active nor inactive); the mix of calls is not that of the screen. Calls come from the whole dose curve; as a rule, active = well fitted inhibition curve with a large enough effect; inconclusive = small, poorly fitted or top-dose-only effect; inactive = no such curve, though single readings can be large or run the other way. Potencies beside an inconclusive call are fits to weak or partial responses and may not hold up.

target: Lysine-specific demethylase 5B (Homo sapiens) (UniProt Q9UGL1); experiment: Primary screen for KDM5B Histone Demethylases FDH-coupled qHTS; settings: FDH-coupled NADH fluorescence (FDH is formaldehyde dehydrogenase); activity change, negative = inhibition: at 57.7 µM (top of the series) unless noted; note: nearly all actives have a fitted effect of over 70% in size; for activity change, negative = inhibition: 0% is about no effect
How it was run: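 Here, H3K4me3 peptide (12.5 µM in substrate mix) is demethylated by KDM5BΔAP, 200 nM final, after 10 min compound exposure. Formaldehyde product is coupled through FDH (0.25 U/mL in mix) to NADH fluorescence; 30-min ΔRFU feeds dose-response curves.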
Potency is the fitted concentration of half-maximal effect; tags give direction and shape of the fitted curve.

Chain of UniProt Q9UGL1 (Q9UGL1 whole entry, looked up): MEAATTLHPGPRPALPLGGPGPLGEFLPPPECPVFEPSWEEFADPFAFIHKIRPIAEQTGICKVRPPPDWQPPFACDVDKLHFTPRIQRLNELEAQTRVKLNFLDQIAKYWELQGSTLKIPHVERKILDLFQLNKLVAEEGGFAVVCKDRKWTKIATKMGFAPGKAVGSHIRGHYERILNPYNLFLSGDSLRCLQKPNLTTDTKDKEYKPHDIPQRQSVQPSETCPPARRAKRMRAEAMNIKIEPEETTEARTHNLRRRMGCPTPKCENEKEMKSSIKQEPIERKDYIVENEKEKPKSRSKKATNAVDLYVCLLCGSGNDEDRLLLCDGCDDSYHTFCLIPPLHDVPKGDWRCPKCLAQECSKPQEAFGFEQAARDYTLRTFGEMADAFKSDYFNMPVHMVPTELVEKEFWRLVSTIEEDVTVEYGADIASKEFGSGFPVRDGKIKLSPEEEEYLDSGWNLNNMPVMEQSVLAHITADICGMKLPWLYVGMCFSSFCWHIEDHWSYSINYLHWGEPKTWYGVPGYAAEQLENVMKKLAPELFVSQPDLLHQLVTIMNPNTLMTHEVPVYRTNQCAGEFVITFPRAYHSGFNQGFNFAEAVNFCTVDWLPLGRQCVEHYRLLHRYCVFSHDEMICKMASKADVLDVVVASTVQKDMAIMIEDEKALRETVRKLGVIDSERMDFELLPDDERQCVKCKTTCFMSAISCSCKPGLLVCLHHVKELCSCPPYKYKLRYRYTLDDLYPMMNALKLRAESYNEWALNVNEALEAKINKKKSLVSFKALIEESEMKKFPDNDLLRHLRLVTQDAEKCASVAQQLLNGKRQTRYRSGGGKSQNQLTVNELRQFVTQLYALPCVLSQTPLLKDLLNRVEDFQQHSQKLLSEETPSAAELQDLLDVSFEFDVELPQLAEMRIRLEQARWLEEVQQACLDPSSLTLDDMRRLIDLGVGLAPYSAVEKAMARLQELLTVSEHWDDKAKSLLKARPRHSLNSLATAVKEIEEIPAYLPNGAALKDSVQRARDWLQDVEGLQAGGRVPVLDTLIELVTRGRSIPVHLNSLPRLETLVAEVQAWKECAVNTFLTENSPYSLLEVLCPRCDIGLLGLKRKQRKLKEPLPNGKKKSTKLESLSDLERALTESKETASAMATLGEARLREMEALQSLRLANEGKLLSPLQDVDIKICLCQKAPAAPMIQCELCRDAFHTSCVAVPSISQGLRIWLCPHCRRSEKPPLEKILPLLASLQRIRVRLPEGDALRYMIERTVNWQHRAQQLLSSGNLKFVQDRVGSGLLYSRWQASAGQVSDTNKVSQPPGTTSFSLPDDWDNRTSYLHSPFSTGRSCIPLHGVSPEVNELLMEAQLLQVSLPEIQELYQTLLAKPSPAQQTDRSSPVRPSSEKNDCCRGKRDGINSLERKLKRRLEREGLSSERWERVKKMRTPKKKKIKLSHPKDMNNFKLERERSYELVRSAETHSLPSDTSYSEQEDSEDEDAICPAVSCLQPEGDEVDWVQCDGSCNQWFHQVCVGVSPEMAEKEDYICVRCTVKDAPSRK

Structure (SMILES) | Potency | activity change, negative = inhibition
CC(=O)Nc1cccc(-c2nc3cc(Cl)ccc3o2)c1 | inconclusive: 25.1 µM [inhibitor, partial curve, poor fit] | 
CCCCOC(=O)C(C)Oc1ccc2c(=O)c(Oc3ccc(OC)cc3)coc2c1 (configuration not stated) | inactive | 
COCCN1Cc2ccc(NCc3ccccc3)nc2C(C)(C(=O)NC2COC2)C1 (configuration not stated) | inconclusive: 31.6 µM [inhibitor, single point] | 
COC(=O)[C@@H]1CCCN1c1ccc(-c2nc(-c3ccccc3F)no2)cn1 | active: 25.1 µM | 
COc1cccc(CNC(=O)Nc2cccc(-c3ccc(N4CCCCC4)nn3)c2)c1 | inconclusive: 22.4 µM [inhibitor, single point] | 
COCCc1noc(-c2nnn3c2COC(c2ccc(F)cc2)C3)n1 (configuration not stated) | inactive | 
CSc1ccc(Cl)c(C(=O)N2CCN(Cc3cc(=O)n4ccsc4n3)CC2)c1 | inconclusive: 17.8 µM [inhibitor, partial curve, poor fit] | 
Cc1noc(C)c1-c1cc2c(cc(C)n2CCN(C)C)c(-c2ccsc2)n1 | active: 31.6 µM | 
COc1cc2c(cc1OC)n(Cc1cccc(C(F)(F)F)c1)c(=O)n1nc(-c3ccccc3)nc21 | inconclusive: 15.8 µM [inhibitor, partial curve, poor fit] | 
CCN(C(=O)c1ccc2c(c1)N(S(C)(=O)=O)CC2)c1ccccc1 | inactive | 
COc1ccc(-c2noc(COc3cc(C)ccc3C)n2)cc1OC | inconclusive: 39.8 µM [inhibitor, single point] | 
CN(C)c1cc(=O)c2ccnc(-c3ccccc3Oc3ccccc3)c2o1 | active: 35.5 µM | 
O=C(COc1ccc(F)cc1)Nc1ccc2nc(SCC(=O)N3CCOCC3)sc2c1 |  | inconclusive: -32.8% [inhibitor]
COc1ccccc1CNC(=O)c1ccc(CS(=O)c2cccc(C)c2)o1 (configuration not stated) | inactive | 
COC(=O)c1cc(S(=O)(=O)N(C)CC(=O)Nc2ccc(Cl)cc2C)cn1C | inactive | 
COc1cccc(-c2ccnc(-c3nnc(C)n3CCN3CCOCC3)c2)c1 | inconclusive: 35.5 µM [inhibitor, partial curve, poor fit] | 
CNC(=O)C1CCN(CCc2ccncc2)CC1 | inactive | 
COc1ccc2c(c1)c(N1CCCC1=O)c(C(=O)Nc1ccccc1C(F)(F)F)n2C | inconclusive: 35.5 µM [inhibitor, partial curve, poor fit] | 
COc1ccc(C2=C(C)C(=O)N(Cc3ccc(C(=O)NCc4cccc(C)c4)cc3)S2(=O)=O)cc1 | inconclusive: 25.1 µM [inhibitor, partial curve, poor fit] | 
Cc1cc(C)nc(Nc2nc(-c3ccccc3)c3ccccc3n2)n1 | inconclusive: 35.5 µM [inhibitor, partial curve, poor fit] | 
CCC(C(=O)NC1CCN(c2cc(-c3ccc(OC)cc3)[nH]n2)CC1)c1ccccc1 (configuration not stated) | inconclusive: 14.1 µM [inhibitor, partial curve, poor fit] | 

Structure (SMILES) | Potency | activity change, negative = inhibition
CC1CCN(C(=O)c2cc(-c3ccc(Br)cc3)on2)CC1 |  | inconclusive: -65% [inhibitor] [at 11.5 µM]
Cc1nnc(CN(C)c2ccc(-c3nc(CCCc4ccccc4)no3)cn2)o1 | inconclusive: 14.1 µM [inhibitor, partial curve, poor fit] | 
COc1cccc(C(=O)N2CCC(c3nc(C4CCOC4)no3)CC2)c1 (configuration not stated) | inconclusive: 35.5 µM [inhibitor, single point] | 
Cc1cc(C)c2oc(C(=O)N(Cc3ccc(C)o3)c3ccccn3)cc(=O)c2c1 | inconclusive: 39.8 µM [inhibitor, single point] | 
O=C(Cc1ccc(F)cc1)NCCNC(=O)c1cc(=O)[nH]c2ccccc12 | inconclusive: 31.6 µM [inhibitor, partial curve, poor fit] | 
CCN(CC)C(=O)c1ccc(Nc2nnc(-c3ccc(C)c(S(=O)(=O)NC)c3)c3ccccc23)cc1 | inconclusive: 15.8 µM [inhibitor, partial curve, poor fit] | 
COc1ccc(C(=O)N2CCCC2c2noc(COc3ccc(F)cc3)n2)cn1 (configuration not stated) | inconclusive: 28.2 µM [inhibitor, single point] | 
O=C1CC2CCN(C(=O)C3CCCC3)CC2CCN1 (configuration not stated) | inactive | 
CC(=O)c1cccc(NC(=S)NNC(=O)c2ccc(-c3ccccc3)cc2)c1 | inactive | 
COc1ccc(C(=O)NC2CCN(c3cc(-c4ccc(F)cc4)[nH]n3)C2)c(C)c1 (configuration not stated) | inconclusive: 6.31 µM [inhibitor, full curve, poor fit] | 
CCOC(=O)c1c(C)n(-c2ccccc2)c2ccc(OC(=O)c3cccc(OC)c3OC)cc12 | inconclusive: 35.5 µM [inhibitor, partial curve, poor fit] | 
CCOC(=O)C1=C(CS(=O)(=O)c2cc(Cl)ccc2OC)NC(=O)NC1c1cccc(OC)c1 (configuration not stated) | inactive | 
Cn1nccc1CN1CCn2c(nnc2C2CCCNC2)C1 (configuration not stated) | inconclusive: 35.5 µM [inhibitor, single point] | 
CC(=O)N1CCN(C(C(=O)O)c2c[nH]c3cc(Br)ccc23)CC1 (configuration not stated) | inactive | 
CCNC(=O)COC(=O)c1cc(-c2ccco2)nc2ccccc12 | inconclusive: 20 µM [inhibitor, partial curve, poor fit] | 
O=C(O)c1ccc(CNCc2ccc(-c3ccccc3)o2)cc1 | inactive | 
Cc1ccc(C)n1-c1c(C(=O)NCCN(C)C2CCCCC2)sc2ncccc12 | inconclusive: 28.2 µM [inhibitor, partial curve, poor fit] | 
O=C(NCc1cccs1)c1ccc(CSc2nc3cccnc3n2Cc2ccccc2F)cc1 | inconclusive: 25.1 µM [inhibitor, partial curve, poor fit] | 
Cc1c(-c2nc(-c3ccc(C(F)(F)F)cc3)no2)n(C)oc1=O | inconclusive: 35.5 µM [inhibitor, partial curve, poor fit] | 
CCOC(=O)c1c(NC(=O)c2cc(-c3cccc(OC)c3)on2)sc2c1CCCC2 | inconclusive: 28.2 µM [inhibitor, single point] | 
COc1ccc(CCNC(=O)Cc2c(C)nn(C)c2C)cc1OC | inactive | 
